# The whole screen tested about 360,000 compounds, of which about 6,000 (1.7%) were called active. This list was built around the results that the source calls inconclusive (neither active nor inactive); the mix of calls is not that of the screen. The call rests on the fitted dose curve; in most records, active means well fitted cell-killing curve with a large enough effect; inconclusive means small, poorly fitted or top-dose-only effect, or effect the other way; inactive means flat fitted curve, though single readings scatter. No potency is given beside an inconclusive call; the fits are too rough.
# Assay: qHTS for induction of synthetic lethality in tumor cells producing 2HG: qHTS for the HT-1080-NT fibrosarcoma cell line;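 further: NT is the 2HG producing partner of a matched IDH1 knockdown line; nearly all actives have a fitted effect of over 55% in size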;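 on activity, negative = less viability: 0% = DMSO-treated cells and -100% = media-only wells without cells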
# Conditions: HT-1080-NT fibrosarcoma viability, CellTiter-Glo ATP luminescence, 48 h; activity, negative = less viability: at 46.1 µM (top of the series) unless noted
# Procedure, shortened: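 HT-1080-NT fibrosarcoma cells (2HG-overproducing), 750 cells/well in RPMI with 5% FBS, dosed after 2 h and incubated 48 h at 37C. CellTiter-Glo luminescence normalized to DMSO and no-cell wells; concentration-response curves fitted and classed.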
# Potency means the concentration at half of the fitted maximal effect; tags describe the fitted curve by direction and shape.
SMILES,Potency,"activity, negative = less viability"
Cc1[nH]n2c(=O)c3c(nc2c1-c1cccc2ccccc12)CCC3,"inconclusive [cytotoxic, single point]",
Cc1ccc(OCCC(=O)N2CCN(c3ccc(O)cc3)CC2)cc1,"inconclusive [cytotoxic, full curve]",
O=C(CCS(=O)(=O)c1ccccc1)Nc1nnc(C(F)(F)F)s1,"inconclusive [cytotoxic, partial curve]",
CC(=O)c1nn(-c2ccc(Br)cc2)cc1C(=O)c1ccccc1,,inactive: -8.2%
COC(=O)c1ccc(CSc2nnc(CS(=O)Cc3ccc(Br)cc3)n2-c2ccccc2)cc1 (centres undefined),,inactive: -21.7%
O=C(NCCCN1CCN(c2ccccc2F)CC1)C1CCCN(S(=O)(=O)c2cnc[nH]2)C1 (centres undefined),"inconclusive [rising, single point]",
CCC1CCCCN1c1nc(-c2ccncc2)nc2ccccc12 (centres undefined),active: 17.8 µM,
COc1ccc(C(NC(=O)c2cccnc2)c2cc(Cl)c3cccnc3c2O)cc1OC (centres undefined),active: 20.6 µM,
NS(=O)(=O)c1ccc(CCNc2nc(C(F)(F)F)nc3ccccc23)cc1,"inconclusive [cytotoxic, full curve, poor fit]",
COc1ccccc1NC(=O)C1CCN(S(=O)(=O)c2ccc3c(c2)NC(=O)C(C)S3)CC1 (centres undefined),"inconclusive [cytotoxic, single point]",
NS(=O)(=O)c1cccc(NC(=O)CSc2nc3ccc(Cl)cc3[nH]2)c1,,inactive: -0.874%
CC(=O)Nc1ccc(NC(=O)c2cccc3ccccc23)cc1,"inconclusive [cytotoxic, partial curve]",
COc1ccc(N/C=C2\CCc3ccccc3C2=O)cc1,"inconclusive [cytotoxic, single point]",
O=C(O)CCCC(=O)N1CCN(c2nc(-c3ccccc3Cl)c3cc(Br)ccc3n2)CC1,,inactive: -16.3%
COc1cc2nc(N3CCCN(C)CC3)nc(NC(C)C)c2cc1OC,,inactive: -15.7%
CC(=O)c1sc(NC(=O)CCS(=O)(=O)c2ccc(F)cc2)nc1C,"inconclusive [cytotoxic, single point]",
COC(=O)c1cc(NC(=O)c2c(Cl)nc3sccn23)cc(C(=O)OC)c1,,inconclusive: -5.3% [cytotoxic]
CSc1c(CC(=O)NCCO)n(C)c2ccccc12,,inactive: -2.84%
O=C(COc1ccccc1)Nc1ccc(S(=O)(=O)N2CCCC2)cc1,,inactive: 16.3%
CC1(C(=O)NCc2ccccc2)Cc2c(-c3ccccc3)ccnc2O1 (centres undefined),"inconclusive [cytotoxic, full curve]",
COc1cc(CN2CCN(Cc3cn(C)c4ccccc34)CC2CCO)cc(OC)c1 (centres undefined),,inactive: 1.14%
O=C(c1cn(-c2ccccc2)nc1-c1ccc(Cl)cc1)N1CCOCC1,,inactive: -1.14%
COc1ccccc1C(=O)NCCNc1ccc([N+](=O)[O-])cc1Cl,,inactive: 0.11%
O=C(N/N=C/C=C\c1ccccc1[N+](=O)[O-])c1cc(-c2ccc3ccccc3c2)n[nH]1,active: 13 µM,
COc1ccc(CCNCC(O)COc2cccc(Br)c2)cc1 (centres undefined),"inconclusive [cytotoxic, single point]",

SMILES,Potency,"activity, negative = less viability"
Cc1cccc(C(O)c2ncc(-c3ccc(Cl)cc3)[nH]2)c1C (centres undefined),"inconclusive [cytotoxic, single point]",
Cc1cccc(C)c1NC(=O)C(c1cccc2ccccc12)n1c(=O)c(-c2cc3ccccc3[nH]2)nc2ccccc21 (centres undefined),,inactive: -10.1%
CC1CCN(CCCCOc2ccc(C(=O)c3ccccc3)cc2)CC1,"inconclusive [cytotoxic, single point]",
O=C(C1CCC(CNc2nc(=S)[nH]c3ccccc23)CC1)N1CCN(c2ccc(F)cc2)CC1 (centres undefined),"inconclusive [cytotoxic, single point]",
Cc1csc2c(N3CCN(C(=S)Nc4ccc(C(F)(F)F)cc4)CC3)ncnc12,,inactive: -14.1%
CCN(CC)c1ccc(S(=O)(=O)N2CCOCC2)cc1NC(=O)CSc1ccccc1,,inactive: -1.89%
CCOC(=O)C1=CC[C@@H](c2ccccc2)N(S(=O)(=O)c2ccc(C)cc2)[C@H]1C#N,active: 16.4 µM,
Cc1ccc(C(=O)O/N=C(\N)c2ccccn2)cc1C,"inconclusive [cytotoxic, single point]",
O=C(Nc1ccnn1C1CCN(CCCC2CCCC2)CC1)c1ccccc1Cl,"inconclusive [cytotoxic, partial curve, poor fit]",
COc1ccc2[nH]c3nc(SCc4nnc(-c5ccccc5)o4)nnc3c2c1,"inconclusive [cytotoxic, single point]",
Cc1ccc(S(=O)(=O)N2CCCCC2CCNC(=O)C(=O)NCc2ccccc2C)cc1 (centres undefined),active: 20.6 µM,
Cc1ccc(-c2nc(NCCCO)c3ccccc3n2)cc1,"inconclusive [cytotoxic, single point]",
Cc1occc1-c1nnc(SCC(=O)c2c(N)n(Cc3ccccc3)c(=O)n(C)c2=O)n1C,,inactive: 11.9%
COc1ccc(N2CC(C(=O)N3CCN(c4ccccc4)CC3)CC2=O)cc1 (centres undefined),,inactive: 5.64%
CNc1ncnc(Sc2nc(N)nc3nc[nH]c23)c1[N+](=O)[O-],active: 2.91 µM,
O=C1[C@@H]2[C@H](C(=O)N1CC(O)COCc1ccccc1)C1C=C[C@H]2C1 (some centres undefined),,inactive: 3.63%
O=C(Nc1ccc(N2CCOCC2)c(Cl)c1)c1ccc(Br)o1,,inconclusive: -0.59%
NC(Cc1ccccc1)c1csc(Nc2nncc3ccccc23)n1 (centres undefined),"inconclusive [cytotoxic, single point]",
CCOc1cc(C(=O)NC(=S)Nc2cccnc2)cc(OCC)c1OCC,,inactive: -5.52%
O=C(COC(=O)c1c[nH]c2ccccc12)Nc1ccc([N+](=O)[O-])cc1,,inactive: -4.38%
Cc1cccc(C)c1NC(=O)Nc1nc(CN(C)C)cs1,"inconclusive [rising, full curve]",
CCc1nc2c(OCc3cc(Cl)cc(Cl)c3)cccn2c1N(C)C(=O)c1ccc(OC)cc1,"inconclusive [cytotoxic, single point]",
CC(C)C(NC(=O)c1ccc(S(=O)(=O)N2CCOCC2)cc1)c1nc2ccccc2[nH]1 (centres undefined),"inconclusive [cytotoxic, single point]",
C=CCn1c(=N)n(CC(O)COc2ccccc2OC)c2ccccc21 (centres undefined),,inactive: -22.9%
CC(C)C[C@H](CO)Nc1nc(N(C)c2cccc(Cl)c2)c2ncn(C(C)C)c2n1,"inconclusive [cytotoxic, single point]",

SMILES,Potency,"activity, negative = less viability"
CN1CCc2cccc3c2[C@@H]1Cc1ccc(O)c(O)c1-3,active: 23.1 µM,
CCN1CCC(CNCc2cn(-c3ccc(OC)cc3)nc2-c2ccccc2Cl)C1 (centres undefined),active: 16.4 µM,
COc1cccc(NC(=O)Cn2c(=O)n(CC3CCCO3)c(=O)c3ccccc32)c1 (centres undefined),,inactive: 10.8%
O=C(O)CSc1nnc(CSc2nc3ccccc3s2)n1-c1ccccc1,,inactive: 14%
Cc1c(CCC(=O)NCCCn2ccnc2)c(=O)oc2cc3occ(C(C)(C)C)c3cc12,"inconclusive [cytotoxic, single point]",
CCC(C)(C)NC(=O)C(OC(=O)c1ccco1)c1ccccc1OC (centres undefined),,inactive: 1.89%
Cc1cc(C)n(-c2ccc(C(=O)N3CCC(CO)(Cc4ccccc4)CC3)cc2)n1,"inconclusive [cytotoxic, single point]",
Cc1ccc(-c2csc(N3CCN(CCCn4c(-c5ccncc5)nc5ccccc54)CC3)n2)cc1,"inconclusive [cytotoxic, single point]",
COc1ccc(CN2C(=O)C(C)Nc3ncnc(N4CCOCC4)c32)cc1 (centres undefined),"inconclusive [cytotoxic, single point]",
O=S(=O)(NCC(c1ccco1)N1CCN(c2ccccc2F)CC1)c1ccc2c(c1)OCCO2 (centres undefined),,inactive: 0.536%
Cc1occc1C(=O)Nc1ccc2c(c1)OCCO2,,inactive: -4.31%
CCN(C[C@H]1N[C@@](C)(C(=O)OC)[C@H]2C(=O)N(C)C(=O)[C@@H]12)S(=O)(=O)c1ccc(-c2ccccc2)cc1,,inconclusive: -11.5% [cytotoxic]
Cn1c(Sc2ccc(Br)cc2)c(C=O)c2ccccc21,"inconclusive [cytotoxic, single point]",
CCN(CC(=O)Nc1ccc2c(c1)OCCO2)C(=O)c1ccc(Cl)cc1Cl,,inactive: -2.61%
O=C(N/N=C/c1ccccn1)c1cc(-c2ccc3ccccc3c2)n[nH]1,"inconclusive [cytotoxic, partial curve]",
CC/C(=N\NC(=O)c1cc(C)nc2ccccc12)c1ccc(C)s1,"inconclusive [cytotoxic, full curve]",
COc1ccc(NC(=O)CSCC(=O)N2CCCc3ccccc32)cc1,"inconclusive [cytotoxic, partial curve]",
CCCCNC(=O)C1(C)CCCCN1Cc1ccccc1-c1ccccc1 (centres undefined),"inconclusive [cytotoxic, single point]",
Cc1ccc(C(=O)Nc2ncc3c(n2)CC(c2ccco2)CC3=O)cc1 (centres undefined),"inconclusive [cytotoxic, partial curve]",
N/C(=N\OC(=O)c1ccc(Cl)c(Cl)c1)c1cccnc1,,inconclusive: 30.8%
CCOC(=O)N1CCN(C(=O)CNS(=O)(=O)c2c(C)cc(C)cc2C)CC1,,inactive: -12.9%
O=C(Nc1cccnc1)c1ccc(Br)s1,"inconclusive [cytotoxic, single point]",
Cc1ccc(/C=N/NC(=O)c2ccoc2C)s1,"inconclusive [cytotoxic, partial curve]",
COCCN=c1scc(-c2ccccc2)n1/N=C/c1c[nH]c2ccccc12,"inconclusive [cytotoxic, single point]",
